{"source": "the supplement of paper PMC12217912", "parents": {"B1": {"name": "TEV protease; numbered along this chain (parent)", "chain": "MGESLFKGPRDYNPISSSICHLTNESDGHTTSLYGIGFGPFIITNKHLFRRNNGTLVVQSLHGVFKVKDTTTLQQHLVDGRDMIIIRMPKDFPPFPQKLKFREPQREERICLVTTNFQTKSMSSMVSDTSCTFPSGDGIFWKHWIQTKDGQCGSPLVSTRDGFIVGIHSASNFTNTNNYFTSVPKNFMELLTNQEAQQWVSGWRLNADSVLWGGHKVFMVKPEEPFQPVKEATQL"}}, "note": "This is one part of the list. Sequences were assembled here from the parent chain. Values near 0.05 are background.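 Note: Bxb1 expression induced with 0.2% (w/v) L-rhamnose at OD600 near 0.5, cultures sampled hourly, flipped fraction per protease–substrate barcode pair counted by paired-end Illumina sequencing.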", "data": [{"variants_of": "B1", "test": "raw area under fraction-flipped curve 0-4 h after induction (AUC4h, not background-subtracted), DNA-recorder readout of cleavage of the substrate (dimensionless); higher = more cleavage of the substrate by the protease variant", "details": "temperature: 34 °C; time window: 0-4 h after rhamnose induction", "values": [{"variant": "V200Q", "area with substrate ENLYHQS": 0.0822, "area with substrate ENLYMQS": 0.0843, "area with substrate ENLYNQS": 0.0748, "area with substrate ENLYTQS": 0.0698, "area with substrate ENLYWQS": 0.0748}, {"variant": "D208L", "area with substrate ENLYHQS": 0.0638, "area with substrate ENLYKQS": 0.0672, "area with substrate ENLYNQS": 0.0847, "area with substrate ENLYPQS": 0.0205, "area with substrate ENLYQQS": 0.0506, "area with substrate ENLYSQS": 0.0673, "area with substrate ENLYYQS": 0.047}, {"variant": "K120T", "area with substrate ENLYIQS": 0.111, "area with substrate ENLYLQS": 0.0943, "area with substrate ENLYNQS": 0.0468, "area with substrate ENLYRQS": 0.068, "area with substrate ENLYVQS": 0.115}, {"variant": "G8W", "area with substrate ENLYKQS": 0.0671, "area with substrate ENLYNQS": 0.0521, "area with substrate ENLYPQS": 0.0796, "area with substrate ENLYTQS": 0.0687, "area with substrate ENLYWQS": 0.0729}, {"variant": "T119F", "area with substrate ENLYKQS": 0.0754, "area with substrate ENLYNQS": 0.0694, "area with substrate ENLYPQS": 0.0982, "area with substrate ENLYQQS": 0.0657, "area with substrate ENLYRQS": 0.0642, "area with substrate ENLYWQS": 0.0783}, {"variant": "F95M", "area with substrate ENLYMQS": 0.0703, "area with substrate ENLYNQS": 0.0749, "area with substrate ENLYVQS": 0.122, "area with substrate ENLYWQS": 0.0644}, {"variant": "V64H", "area with substrate ENLYTQS": 0.0869}]}]}
